Assay results from the supplement of paper PMC10126150.
Sequences with one replicate were seen in a single cluster, so their values are uncertain.

Tested on: ATP
Experiment: switch fluorescence ratio, 500 uM ATP over buffer (Cy3 cluster intensity, sum of 5 cycles each) (fold (ratio)); higher = stronger signal-on switching upon ATP binding; sequences stand for … in TCGTCGGCAGCGTCAGATGTGTATAAGAGACAGTTTTTTTTTTTTTTTTTTTTTTTTT…TC
Settings: aptamer strand: ATP DNA aptamer (quencher-CACCTGGGGGAGTATTGCGGAGGAAGG + anchor), 100 nM annealed; ATP concentration: 500 uM; one replicate
Procedure, shortened: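 Between each of five buffer/ATP cycles, the flow-cell was stripped with NaOH and re-annealed. Each cycle imaged Cy3-labelled switching-strand clusters, annealed to 100 nM quencher-labelled ATP aptamer on a modified Illumina MiSeq flow-cell, first in selection buffer and then after 15 min with 500 uM ATP at 22 °C. The fluorescence ratio is summed target-cycle over summed buffer-cycle Cy3 intensity per cluster, averaged per switch-domain sequence, with clusters outside 100-1000 RFU excluded.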
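Also: ATP exposure 15 min at 22 °C before imaging.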

Sequence	switch fluorescence ratio
TCCGGTTGTT	1.01
CAGCCTTATC	1.07
AAAGGCTTAA	1.02
TAAGGTCAGG	1.01
CCCAGCGAGC	1.13
ACTCGGCGTG	0.992
GGATGGAGAA	1
GGTGATGCTA	1.01
GACCGCGCAC	3.04
AGTATTCT	1.01
CCAACGTAAG	1.15
TTGTACCAGG	1.56
TACAATGCCC	1.04
GACATAAGCG	0.986
AACCCATCCT	1.73
AATCCCCCGG	4.69
CCCAGGACTC	1.95
CAGAAGACGC	1.02
CTTTGAAGG	1.03
CGAATTAATC	1
AAATGATGTG	1.03
AATGGGGAAC	1
TGTTAAATAA	1.01

Sequence	switch fluorescence ratio
GTGGGTAATC	0.956
CGGTACTCTT	1.05
CCATGCGTAC	4.02
CGCACAGGGG	3.79
GTTGGACATG	0.991
GAAATTCATG	1.06
AATCTACACC	1.16
TGATAATTT	0.979
TGCGGGCCGG	1.04
AAGTGTAGTT	1.01
GATACTTTAA	1.04
TTATCTGACC	1.03
TAACCTGAGC	1.3
GCGCCGTATT	0.991
AATGTATGCA	0.974
GTTATTAGGA	1.06
GCATTATGCA	0.975
AAAGCGCCTG	1.03
CTTACTGATC	1.06
GCGCTCGTAG	1.01
AGATACAGTG	1.01
GTGAGGCTGA	1.05
AAGTCCGGTC	1.05

Sequence	switch fluorescence ratio
AGCCGAATAT	0.991
GACATGTCTG	0.986
GTTCAAGTTG	1.01
GCGAATAGCA	0.987
CCAAGTCAGT	1.07
CCTCTGATGT	1.91
TATAAATTA	0.974
CAACTAGAGA	1.01
TATTTACCTG	1.03
CTAGCAGACT	1.17
GGCTATACGT	1.15
ATGGCACATG	0.994
ACTCCCTAAG	2.34
GAGAACCTTA	1.21
TAGGTACCGA	1.02
TCGAAAAGAA	1.01
TCGTATCTCT	1.03
TCGTCGCATA	1.84
AGACTGCATC	1.05
ATAACGGTTG	0.99
ATGTTACTGG	1.02
GAGTTACTTA	0.994
GCCTGCAAGG	1.46

Sequence	switch fluorescence ratio
GGCGCGCCTC	0.986
TGTTTGCGAC	0.993
ACAGGATTAA	1
TTTTCTGCAA	3.99
GCTTGCACGC	1.03
AGGCTTTGAG	0.949
TAACTGGGAT	1.01
TTTAGTAGGC	0.982
CAGTCGCGGT	1.03
ACGTTGGGTG	1.07
TCAATTGGTT	1.02
TATTGCGTAG	0.942
CAATAAGGCA	0.947
GCAGGTATAC	1.76
GAAATTATTC	0.999
TCAATTACAG	1.04
ATCACTGTTG	1.04
GCCTAAGTG	1.05
AAATCACTAC	1.11
GGTAAACTGA	1.05
GCCTTAGAGA	0.972
TGCAGAGCCT	0.983
AACGGGGGTA	1.03

Sequence	switch fluorescence ratio
GGTAATCAGG	1.02
GAAATATATC	0.995
CTGATTCACT	0.972
TGTGAAACAT	1.03
ACCTGCACCA	1.29
CAGTCCAC	1.01
GCCGCCGGCG	1.07
CATGTCACCT	1.14
CACCGGCAAC	3.6
GATATGCAGC	0.988
ATTTAATGTG	0.992
CTCAACCTCC	2.11
TCGTTCAGGT	0.98
GGTCCCATAC	1.45
CCGATTGAGA	1.03
TTTACTCAT	0.983
GTCATGGGGT	0.993
TCAAAGAGCC	1.02
AGTAGTGATA	0.962
CTGAGCAGTT	1.14
GTAAAAGAGT	0.995
ATGGTCCGCG	1.08
ACCGTCAGCA	1.18

Sequence	switch fluorescence ratio
CGTTGAATTG	0.927
CGTTACACGG	1.01
TTGGTGGCC	1.01
GAAATAAGCG	0.993
TACCCTCTGT	0.981
TGCTGGGTAG	1.01
TAGCAAGAGA	0.998
AATAGTTTTG	0.99
ATGAGTACTT	1.01
ATTAAGGGCC	1
CGGGATTTTG	0.943
ACGGATACTT	1.26
CCGGAACGTG	0.989
GGCTGAGTCT	1.06
TGGCGGGCAA	0.965
GTAATCCGGA	0.992
TAAAGACGTG	1.03
CTGGTAGGTG	1.08
GGTTCAAAGG	0.974
TAGGCTCTC	1.01
GCATAAACGA	1.17
AACCTAGAAA	3.67
TAGGAGGG	1.02

Sequence	switch fluorescence ratio
TTAATTTGCG	1.05
TGGAACGGGG	0.999
GGCGGTATTG	1.01
AGGAGTTAGC	0.968
GGAAATGCTT	1.03
AAGTAAACCT	2.56
CGCCTATGTT	0.94
TCCCTTGGCA	1.07
CCCGTCTGGA	0.955
TTTCTAGCAG	0.995
GACTTCCGGG	1.11
ATCCGGGTTT	0.982
TGTTATCGGG	0.972
TACCATTTGC	1
GATAGCGTGG	0.999
AACCATGGCT	0.989
ATTTGACGCC	1.04
ACCTTTCGAG	2.77
GTACATTGCG	1.05
